Reference: PubChem BioAssay AID686979 (National Center for Advancing Translational Sciences (NCATS), 2013)
The whole screen tested about 420,000 compounds, of which about 50,000 (12%) were called active. Inconclusive results, whose numbers are uncertain, are shown with a selection of clear calls. Calls follow the shape of the dose curve; as a rule, active = well fitted inhibition curve with a large enough effect; inconclusive = small, poorly fitted or top-dose-only effect; inactive = flat fitted curve, though single readings scatter. Potencies of inconclusive entries are left out as doubtful fits.

Test: qHTS for Inhibitors of human tyrosyl-DNA phosphodiesterase 1 (TDP1): qHTS in cells in presence of CPT; also: nearly all actives have a fitted effect of over 55% in size
Settings: chicken DT40 Tdp1-/-;hTDP1 cells + 20 nM CPT, ATP luminescence, 48 h; activity change, negative = growth inhibition: at 46.2 µM (top of the series)
Method in brief: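 Chicken DT40 Tdp1-/- cells complemented with human TDP1, 400 cells/well, exposed to compounds plus 20 nM camptothecin for at least 48 h at 37 C; viability read as ATP content by CellTiter-Glo luminescence.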
% is scaled to controls: 0 for no effect and ±100 for the full control effect; potency is read from the fitted curve at half-maximal effect; tags tell the direction and shape of the fitted curve.

Structure (SMILES)	activity change, negative = growth inhibition	Potency
COCCN(CCOC)S(=O)(=O)c1ccc(C(=O)Nc2nc(C)c(C(C)=O)s2)cc1	inactive: -6.09%	
O=C(Nc1nnc(-c2ccccn2)o1)c1cccc(Cl)c1		inconclusive [inhibitor, single point]
Cc1cc(C)c(CSc2ncc(-c3ccc([N+](=O)[O-])cc3)[nH]2)c(C)c1		active: 16.4 µM
Cc1ccc(C2(c3noc(CN4CCC(C(=O)N5CCOCC5)CC4)n3)CCCC2)cc1		inconclusive [inhibitor, single point]
COC(=O)c1c(NC(=O)CCN2CCOCC2)sc2c1CCCC2		inconclusive [inhibitor, single point]
O=C(Cn1c(=O)ccc2cc(S(=O)(=O)N3CCCC3)ccc21)Nc1ccccc1		inconclusive [inhibitor, single point]
CC(C)c1ccc(NC(=O)CSc2nc(=O)n(CCN3CCOCC3)c3c2CCC3)cc1	inactive: -15.7%	
COc1ccc(CCNC(=O)c2cccs2)cc1OC	inactive: -7.5%	
CC(C)C(=O)N1CCN(c2ccccc2NC(=O)c2cccc3ccccc23)CC1		inconclusive [inhibitor, single point]
CC(C=CC(O)=C1C(=O)CNC1=O)=C[C@@H](C)C1OC2(C)OC(C(=O)C3O[C@@]32C)C1C (some centres undefined)	inactive: -1.44%	
Cc1ccc(Cl)cc1N1CCN(C(=O)c2ccc3c(Cl)c4c(nc3c2)CCCC4)CC1		inconclusive [inhibitor, single point]
CCc1ccc(-c2cc(C)no2)cc1S(=O)(=O)NC(C)Cc1ccco1 (centres undefined)		inconclusive [inhibitor, single point]
CC1CC(C)CN(C(=S)NC2CCCCC2)C1 (centres undefined)		inconclusive [inhibitor, single point]
CC(=O)C1=C(O)C(=O)N(c2cc(C(C)(C)C)on2)C1c1ccc(C(C)C)cc1 (centres undefined)		inconclusive [inhibitor, single point]
Cc1ccc(SCc2c(C(=O)N/N=C/c3cccnc3)nnn2-c2nonc2N)cc1		inconclusive [inhibitor, single point]
CCn1c(SCC(=O)N2CCCCC2)nc2c(c1=O)SC(C)C2 (centres undefined)		inconclusive [inhibitor, partial curve]
CCC1Oc2ccc(C)cc2N(CC(=O)N(Cc2ccc(C)o2)C2CC(C)(C)NC(C)(C)C2)C1=O (centres undefined)		active: 18.4 µM
CSc1cccc(NC(=O)C2CCCN2S(=O)(=O)c2ccc(Br)s2)c1 (centres undefined)		inconclusive [inhibitor, single point]
CCn1ccc2c(OCC(=O)Nc3ccc(OC)cc3OC)cccc2c1=O		inconclusive [inhibitor, full curve]
COc1ccccc1CNC(=O)CCc1c(C)c2cc3c(C)coc3cc2oc1=O		inconclusive [inhibitor, single point]
COc1ccc(-c2ccc(C(=O)NCC(C)C)c3occc23)c(C)c1		inconclusive [inhibitor, single point]
CC(NC(=O)CCc1nc2cc(S(=O)(=O)N3CCOCC3)ccc2n1C)c1ccc(S(N)(=O)=O)cc1 (centres undefined)	inactive: 9.07%	

Structure (SMILES)	activity change, negative = growth inhibition	Potency
COc1c(CC=C(C)C)c(O)cc2oc(=O)c3c4ccc(O)cc4oc3c12		inconclusive [inhibitor, single point]
CCN1CCN(CCCNC(=O)Cn2c(-c3cccs3)cc3cc(Cl)ccc32)CC1		inconclusive [inhibitor, single point]
COCCn1c(=O)c(-c2cccc(C#N)c2)nc2cnc(N3CCNCC3)nc21	inactive: -6.22%	
Cn1c(SCc2cccc(Br)c2)nc2ccccc2c1=O		inconclusive [inhibitor, single point]
CCCCOc1ccc(CNC(=O)c2cnc3sc(N4CCCC4)nn3c2=O)cc1		inconclusive [inhibitor, full curve, poor fit]
Cc1c(Cl)cccc1NC(=O)C(=O)NCCc1csc2nc(-c3ccccc3F)nn12		active: 18.4 µM
COC(=O)c1cc2ccsc2n1Cc1cc(=O)n2ccccc2n1	inconclusive: -33.1% [inhibitor]	
COc1ccccc1-c1coc2c(CN3CCC(C)CC3)c(O)ccc2c1=O	inactive: -28.9%	
O=C(N/N=C/c1ccc(N2CCOCC2)o1)c1ccccc1[N+](=O)[O-]	inactive: 0.25%	
Cc1ccc2[nH]c(=O)c(CN(Cc3cccnc3)Cc3nnnn3CCN3CCOCC3)cc2c1		inconclusive [inhibitor, single point]
CC1CCCCN1c1cc2c(cc1F)c(=O)c(S(=O)(=O)c1ccccc1)cn2Cc1ccccc1 (centres undefined)		active: 8.2 µM
CC(C)n1cc(/C=C2/SC(=O)N(CC(=O)Nc3ccc4c(c3)OCO4)C2=O)c2ccccc21	inconclusive: -33.1% [inhibitor]	
COc1cc(N/N=C(\C)c2ccc(N)cc2)nc(-c2ccccc2)n1		active: 23.1 µM
Fc1cccc(Nc2nc(N3CCOCC3)nc(N3CCOCC3)n2)c1		active: 18.4 µM
CCC(=O)N1c2ccccc2CC1C(=O)NCCCN1CCN(c2ccc(OC)cc2)CC1 (centres undefined)		inconclusive [inhibitor, single point]
O=C(O)c1cccc(S(=O)(=O)Nc2cccc(S(=O)(=O)N3CCCC3)c2)c1	inactive: -2.35%	
COc1ccc(N2C(=O)/C(=C/c3ccc([N+](=O)[O-])cc3)N=C2C)c(OC)c1		active: 3.66 µM
COc1ccc(-c2ccc(C(=O)NC(C)C)c3occc23)c(C)c1		active: 14.6 µM
CCN(CC)S(=O)(=O)c1ccc2c(c1)nc(CN(C)C(=O)Nc1ccc(C)c(Cl)c1)n2C		inconclusive [inhibitor, single point]
Cc1ccc(C)c(NC(=O)c2cc(S(=O)(=O)NCc3ccccc3)ccc2F)c1		inconclusive [inhibitor, single point]
CCCCCCc1cc2cc(C(=O)Nc3cccc(OC)c3)c(=O)oc2cc1O		active: 2.59 µM
CN(C)CCN(Cc1cccs1)c1ccccn1		inconclusive [inhibitor, single point]
